Where “and” joins values, the source holds several entries; their conditions need not be identical. Equal entries are not always repeated. About 40 (0.2%) of roughly 16,000 compounds were called active. Roughly 1% stayed inconclusive and do not appear here. Calls come from the whole dose curve; as a rule, active = well fitted activation curve with a large enough effect; inconclusive = small, poorly fitted or top-dose-only effect, or another doubt; inactive = no such curve, though single readings can be large or run the other way. The list shows a part of the results.
Each compound was assayed against Rap guanine nucleotide exchange factor 4 (Homo sapiens) (UniProt Q8WZA2) (assay: Validation qHTS for agonist of cAMP-regulated guanine nucleotide exchange factor 4 (EPAC2)). Details: EPAC2 Rap1B BODIPY-GDP exchange, fluorescence; activation: active compounds read high.
UniProt Q8WZA2, sequence (Q8WZA2 whole entry, looked up): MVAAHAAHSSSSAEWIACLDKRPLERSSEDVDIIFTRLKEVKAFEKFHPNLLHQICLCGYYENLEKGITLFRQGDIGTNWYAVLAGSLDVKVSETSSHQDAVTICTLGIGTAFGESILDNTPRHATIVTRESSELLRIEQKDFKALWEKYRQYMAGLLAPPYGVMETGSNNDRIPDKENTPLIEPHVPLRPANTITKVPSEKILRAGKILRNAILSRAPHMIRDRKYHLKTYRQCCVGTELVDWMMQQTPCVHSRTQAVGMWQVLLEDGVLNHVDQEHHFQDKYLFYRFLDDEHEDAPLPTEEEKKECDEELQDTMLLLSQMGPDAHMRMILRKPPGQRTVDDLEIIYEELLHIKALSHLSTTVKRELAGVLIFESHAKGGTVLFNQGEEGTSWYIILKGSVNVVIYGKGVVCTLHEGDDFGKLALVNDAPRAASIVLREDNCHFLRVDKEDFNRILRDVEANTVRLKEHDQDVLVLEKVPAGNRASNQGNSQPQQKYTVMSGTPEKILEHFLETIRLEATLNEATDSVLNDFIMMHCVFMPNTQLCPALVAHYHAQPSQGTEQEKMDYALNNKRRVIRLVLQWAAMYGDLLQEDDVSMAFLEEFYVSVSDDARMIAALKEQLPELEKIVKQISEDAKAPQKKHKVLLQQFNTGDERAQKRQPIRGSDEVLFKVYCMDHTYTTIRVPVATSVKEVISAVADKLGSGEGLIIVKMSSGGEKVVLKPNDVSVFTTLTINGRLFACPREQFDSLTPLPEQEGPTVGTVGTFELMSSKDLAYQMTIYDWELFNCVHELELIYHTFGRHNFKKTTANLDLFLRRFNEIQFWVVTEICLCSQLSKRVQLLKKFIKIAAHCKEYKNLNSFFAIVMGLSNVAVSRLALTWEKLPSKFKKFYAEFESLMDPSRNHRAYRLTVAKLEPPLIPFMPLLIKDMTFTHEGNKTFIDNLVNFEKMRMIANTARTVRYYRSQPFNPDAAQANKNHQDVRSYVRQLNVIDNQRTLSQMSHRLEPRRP
Outline: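 Signal normalized against 6.5 mM cAMP as agonist control. Mix of EPAC2 (100 nM), RAP1B-BODIPY-GDP (250 nM) and GDP (50 uM) was read kinetically at 480/540 nm, every 5 min over 30 min, after 5 min room-temperature incubation with compound.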
% is set by controls: 0 for no effect and ±100 for the full control effect.
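Note: exchange makes BODIPY-GDP fluorescence drop when released from Rap1B; series mostly up to about 150 µM.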

activation, inactive:
Oc1cc(-c2nc3ccccc3s2)cc2c1OCCN(Cc1cccn1-c1ccccn1)C2 7.3%
Cc1c(C(=O)NCC2CCCN(C)C2)cnn1-c1ncc2c(n1)-c1ccccc1CCC2 (stereo not given) -3.51%
CCCn1c(=O)c2[nH]c(-c3ccc(OCC(=O)Nc4ccc(C(C)=O)cc4)cc3)nc2n(CCC)c1=O -1.61%
O=c1c(CCc2ccccc2)nc2cncnc2n1C1CC1 2.7%
COC(=O)[C@H](CC(C)C)N(Cc1ccccc1)S(=O)(=O)N(Cc1ccccc1)[C@@H](CC(C)C)C(=O)OC 1.78%
CC(C)C[C@H](NC(=O)[C@H](CCCCN)NC(=O)[C@H](CCCNC(=N)N)NC(=O)[C@H](C)NC(=O)[C@H](CO)NC(=O)[C@H](CCCCN)NC(=O)[C@H](CCCNC(=N)N)NC(=O)[C@H](C)NC(=O)CNC(=O)[C@@H](NC(=O)[C@H](Cc1ccccc1)NC(=O)CNC(=O)CNC(=O)[C@@H](N)Cc1ccccc1)[C@H](C)O)C(=O)N[C@@H](C)C(=O)N[C@@H](CC(N)=O)C(=O)N[C@@H](CCC(N)=O)C(=O)O 5.55%
O=C(NCC1Cc2cc(F)cc(-c3cnccn3)c2O1)C1COc2ccccc2O1 (stereo not given) -0.427%
NC(=O)c1ccc[n+]([C@@H]2O[C@H](COP(=O)([O-])OP(=O)(O)OC[C@H]3O[C@@H](n4cnc5c(N)ncnc54)[C@H](O)[C@@H]3O)[C@@H](O)[C@H]2O)c1 9.61% and 1.7%
CN1CCN(c2ncc3nc(-c4cccc(C#N)c4)c(=O)n(C)c3n2)CC1 -30.7%
COCC(=O)N1CCC2(CC1)CN(C(=O)Nc1ccccc1)C2 -10.7%
CC(=O)O[C@H]1C[C@@H]2CC[C@@H]3[C@H](CC[C@@]4(C)[C@H]3C[C@H](N3CC[N+](C)(C)CC3)[C@@H]4OC(C)=O)[C@@]2(C)C[C@@H]1N1CC[N+](C)(C)CC1 -6.49%
NCC(=O)CCC(=O)O -20.5%
CSc1nc(N)c2ncn([C@H]3O[C@H](COP(=O)(O)OP(=O)(O)OP(=O)(O)O)[C@@H](O)[C@@H]3O)c2n1 -20.6%
COc1ccc2[nH]cc(CCNc3nc(-c4ccccc4OC)nc4ccccc34)c2c1 6.5%
CCc1ccc(C=O)cc1 -1.72%
O=C(c1cnccn1)N1CCC2(CC1)CN(c1ccccc1)C2 -14.6%
CC(C)c1c(C(=O)NCc2cccnc2)cnn1-c1nccc(-c2cccs2)n1 2.31%
C[C@@H]1NS(=O)(=O)[C@H]2C[C@@H]3C=C[C@]2(O3)[C@H]1OC(=O)c1ccccc1Br -8.7%
Cc1cc2c(OCC(CNC(C)(C)C)OC(=O)c3ccccc3)cccc2[nH]1 (stereo not given) -7.48%
COc1c2ccoc2cc2oc(C)cc(=O)c12 -1.43%
CCNc1ncc2nc(-c3cc(F)cc(F)c3)c(=O)n(CCC#N)c2n1 -2.32%
CN(C)CCC=C1c2ccccc2C(C)(C)c2ccccc21 9.01%
COc1ccccc1C1CN(Cc2cccc(OCCO)c2)Cc2ccccc2O1 (stereo not given) -16.1%
COc1ccc(CN(CCN(C)C)c2ncccn2)cc1 -9.76%
N=C(N)SCCc1ccc(CCSC(=N)N)cc1 -12.8%
O=C(/C=C/c1cccc(F)c1)NC1CC1 -19%
O=C(O)C[C@H]1c2cc(C(F)(F)F)ccc2S(=O)(=O)N1Cc1ccccc1 -16.7%
CN1CCN(C(=O)C2CCCCC2)CC1 2.68%
Oc1ccc(C2CNCc3sccc32)cc1O (stereo not given) -21.1%
COC(=O)c1c(C)c2c(c(C)c1O)OC(=O)c1c(C)c(Cl)c(O)c(Cl)c1O2 -24.6% and -13.2%
COc1cc(C(=O)N2CCCCCCC2)cc(OC)c1OC -6.18%
COc1ccccc1CNc1ncnc2ccc(-c3ccccc3C#N)cc12 -6.97%
Cc1cnc(-n2ncc(C(=O)NCc3ccncc3)c2C(C)C)nc1-c1ccc(F)cc1 2.75%
O=C(c1csnn1)N1CCC[C@@]2(CCN(Cc3nccs3)C2)C1 -13.8%
O=C(O)C[C@H](O)C[C@H](O)/C=C/c1c(C2CC2)nc2ccccc2c1-c1ccc(F)cc1 -3.36%
CCNc1ncc2nc(C)c(=O)n(C3CC3)c2n1 -2.57%
CC1=C(C(=O)O)N2C(=O)[C@@H](NC(=O)C(N)C3=CCC=CC3)[C@H]2SC1 (stereo not given in full) -25.8%
O=c1[nH]c2cc(Cl)ccc2c(O)c1-c1cccc(Oc2ccccc2)c1 -11.3%
COc1cccc(-c2nccc(NCc3ccccc3)n2)c1 -15.8%
Cc1cc(/C=C/c2ccccc2)nc2ccccc12 -2.68%
Cc1ccc(C)c(OCCCC(C)(C)C(=O)O)c1 -17.8% and -30.2% and 25.6%
C[C@@H]1CCC2[C@@H](C)[C@@H](O)O[C@@H]3O[C@@]4(C)CC[C@@H]1[C@@]23OO4 (stereo not given in full) -10.8%
O=C1CCN(Cc2ccccc2)S(=O)(=O)c2c(F)cc(F)cc21 0.124%
C=CCN1CCc2c(cc(O)c(O)c2Cl)C(c2ccccc2)C1 (stereo not given) -4.02% and -35.1%
COc1ccccc1-c1ccc2ncnc(N3CCN(C)CC3)c2c1 -10.8%
CN(C)Cc1ccccc1 5.77%
O=C(CCCN1CCC(O)(c2ccc(Cl)cc2)CC1)c1ccc(F)cc1 -5.61% [middle of 4 runs]
O=C(O)c1cc(O)c2c(c1)C(=O)c1cc(O)cc(O)c1C2=O -17.1%
CCCCCCCCCCCCCCCC[n+]1ccc(C)c2ccccc21 -24%
CC(=O)OCC(=O)[C@@]1(O)CCC2C3CC[C@H]4CC(O)CC[C@@]4(C)C3C(=O)C[C@]21C (stereo not given in full) -14.5%

From PubChem BioAssay AID1645887 (National Center for Advancing Translational Sciences (NCATS), 2021)
